Measured values published in paper PMC8042451.
No constants are given. Whether binding was seen depends on the method and setting. Binding seen in cells or lysates may run through a third protein. Some binding calls cover weakened binding; strength is not graded here. For part of these data: Sequences can lack the tags named with a protein.

Chains of the proteins cited; added tags and fusions are not shown. Lines headed by an entry give the natural chain unless they say otherwise; changes in a name come on top. A line that says so, or that is headed by a name, gives the form on record, which may keep a tag or linker.
UniProt P08753: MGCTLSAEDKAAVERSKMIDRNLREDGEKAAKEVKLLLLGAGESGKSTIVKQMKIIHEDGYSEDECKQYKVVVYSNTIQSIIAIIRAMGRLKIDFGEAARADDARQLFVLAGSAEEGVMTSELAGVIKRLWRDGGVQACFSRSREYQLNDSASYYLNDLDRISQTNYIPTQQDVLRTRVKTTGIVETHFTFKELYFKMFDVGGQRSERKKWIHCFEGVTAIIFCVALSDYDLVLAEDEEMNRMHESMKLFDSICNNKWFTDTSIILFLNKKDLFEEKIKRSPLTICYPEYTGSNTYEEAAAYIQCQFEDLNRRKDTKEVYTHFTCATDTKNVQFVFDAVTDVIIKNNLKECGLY
UniProt P63096: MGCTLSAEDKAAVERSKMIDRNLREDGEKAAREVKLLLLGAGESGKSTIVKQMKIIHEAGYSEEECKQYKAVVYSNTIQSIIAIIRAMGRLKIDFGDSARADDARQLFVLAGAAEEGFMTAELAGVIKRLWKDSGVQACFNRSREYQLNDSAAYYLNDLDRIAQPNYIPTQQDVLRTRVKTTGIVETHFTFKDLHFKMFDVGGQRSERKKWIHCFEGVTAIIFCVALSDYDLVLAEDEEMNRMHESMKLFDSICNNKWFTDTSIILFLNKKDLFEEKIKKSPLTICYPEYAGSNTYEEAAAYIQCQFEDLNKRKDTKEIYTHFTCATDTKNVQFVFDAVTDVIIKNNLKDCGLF
myc-tagged human GIV (wild type) (Q3V6T2-3, form named): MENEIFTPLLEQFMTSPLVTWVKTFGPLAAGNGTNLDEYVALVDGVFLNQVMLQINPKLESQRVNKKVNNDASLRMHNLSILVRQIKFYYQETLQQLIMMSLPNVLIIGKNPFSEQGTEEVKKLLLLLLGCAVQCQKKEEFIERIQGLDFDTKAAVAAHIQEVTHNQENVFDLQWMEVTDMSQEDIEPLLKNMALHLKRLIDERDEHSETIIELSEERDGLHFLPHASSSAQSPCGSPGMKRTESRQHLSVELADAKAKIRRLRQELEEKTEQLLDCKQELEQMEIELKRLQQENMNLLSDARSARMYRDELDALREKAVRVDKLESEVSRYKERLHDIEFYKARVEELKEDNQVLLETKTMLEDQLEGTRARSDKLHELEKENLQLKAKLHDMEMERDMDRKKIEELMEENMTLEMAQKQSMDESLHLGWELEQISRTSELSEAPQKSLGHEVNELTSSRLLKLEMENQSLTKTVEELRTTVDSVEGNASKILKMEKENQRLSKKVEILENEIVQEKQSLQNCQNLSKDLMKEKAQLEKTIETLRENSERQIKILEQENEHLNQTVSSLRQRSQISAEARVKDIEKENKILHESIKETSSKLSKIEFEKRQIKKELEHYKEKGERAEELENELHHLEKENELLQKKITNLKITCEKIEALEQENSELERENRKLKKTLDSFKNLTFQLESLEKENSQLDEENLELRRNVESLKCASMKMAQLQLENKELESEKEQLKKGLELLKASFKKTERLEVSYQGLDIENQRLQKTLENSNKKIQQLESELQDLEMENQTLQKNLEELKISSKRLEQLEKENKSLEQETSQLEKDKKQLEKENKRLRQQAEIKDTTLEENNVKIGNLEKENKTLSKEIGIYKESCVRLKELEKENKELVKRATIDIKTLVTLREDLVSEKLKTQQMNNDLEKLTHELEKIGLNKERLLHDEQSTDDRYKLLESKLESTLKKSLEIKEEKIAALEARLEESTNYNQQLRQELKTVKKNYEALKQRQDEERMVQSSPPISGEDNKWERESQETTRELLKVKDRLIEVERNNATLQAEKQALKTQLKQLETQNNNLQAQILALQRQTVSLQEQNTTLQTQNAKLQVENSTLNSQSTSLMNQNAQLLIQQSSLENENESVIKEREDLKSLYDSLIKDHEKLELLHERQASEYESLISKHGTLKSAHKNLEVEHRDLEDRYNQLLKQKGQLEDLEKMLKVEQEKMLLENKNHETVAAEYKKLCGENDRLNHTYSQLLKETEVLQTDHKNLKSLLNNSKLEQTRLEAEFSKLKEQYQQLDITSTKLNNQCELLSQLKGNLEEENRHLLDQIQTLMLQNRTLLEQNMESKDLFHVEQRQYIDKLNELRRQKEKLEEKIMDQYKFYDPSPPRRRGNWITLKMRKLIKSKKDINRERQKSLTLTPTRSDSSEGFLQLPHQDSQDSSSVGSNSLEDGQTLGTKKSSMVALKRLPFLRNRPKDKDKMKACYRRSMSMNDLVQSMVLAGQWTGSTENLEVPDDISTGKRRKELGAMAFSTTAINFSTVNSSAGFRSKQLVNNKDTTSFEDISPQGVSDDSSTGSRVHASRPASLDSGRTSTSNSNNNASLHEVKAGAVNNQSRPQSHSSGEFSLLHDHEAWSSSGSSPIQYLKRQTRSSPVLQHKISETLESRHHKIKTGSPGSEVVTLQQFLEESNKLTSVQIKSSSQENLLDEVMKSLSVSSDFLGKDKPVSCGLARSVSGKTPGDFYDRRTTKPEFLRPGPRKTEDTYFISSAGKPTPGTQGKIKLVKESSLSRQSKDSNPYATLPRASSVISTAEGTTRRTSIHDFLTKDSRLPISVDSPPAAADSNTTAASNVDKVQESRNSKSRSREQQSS
myc-tagged human GIV F1685A mutant (Q3V6T2-3, form named): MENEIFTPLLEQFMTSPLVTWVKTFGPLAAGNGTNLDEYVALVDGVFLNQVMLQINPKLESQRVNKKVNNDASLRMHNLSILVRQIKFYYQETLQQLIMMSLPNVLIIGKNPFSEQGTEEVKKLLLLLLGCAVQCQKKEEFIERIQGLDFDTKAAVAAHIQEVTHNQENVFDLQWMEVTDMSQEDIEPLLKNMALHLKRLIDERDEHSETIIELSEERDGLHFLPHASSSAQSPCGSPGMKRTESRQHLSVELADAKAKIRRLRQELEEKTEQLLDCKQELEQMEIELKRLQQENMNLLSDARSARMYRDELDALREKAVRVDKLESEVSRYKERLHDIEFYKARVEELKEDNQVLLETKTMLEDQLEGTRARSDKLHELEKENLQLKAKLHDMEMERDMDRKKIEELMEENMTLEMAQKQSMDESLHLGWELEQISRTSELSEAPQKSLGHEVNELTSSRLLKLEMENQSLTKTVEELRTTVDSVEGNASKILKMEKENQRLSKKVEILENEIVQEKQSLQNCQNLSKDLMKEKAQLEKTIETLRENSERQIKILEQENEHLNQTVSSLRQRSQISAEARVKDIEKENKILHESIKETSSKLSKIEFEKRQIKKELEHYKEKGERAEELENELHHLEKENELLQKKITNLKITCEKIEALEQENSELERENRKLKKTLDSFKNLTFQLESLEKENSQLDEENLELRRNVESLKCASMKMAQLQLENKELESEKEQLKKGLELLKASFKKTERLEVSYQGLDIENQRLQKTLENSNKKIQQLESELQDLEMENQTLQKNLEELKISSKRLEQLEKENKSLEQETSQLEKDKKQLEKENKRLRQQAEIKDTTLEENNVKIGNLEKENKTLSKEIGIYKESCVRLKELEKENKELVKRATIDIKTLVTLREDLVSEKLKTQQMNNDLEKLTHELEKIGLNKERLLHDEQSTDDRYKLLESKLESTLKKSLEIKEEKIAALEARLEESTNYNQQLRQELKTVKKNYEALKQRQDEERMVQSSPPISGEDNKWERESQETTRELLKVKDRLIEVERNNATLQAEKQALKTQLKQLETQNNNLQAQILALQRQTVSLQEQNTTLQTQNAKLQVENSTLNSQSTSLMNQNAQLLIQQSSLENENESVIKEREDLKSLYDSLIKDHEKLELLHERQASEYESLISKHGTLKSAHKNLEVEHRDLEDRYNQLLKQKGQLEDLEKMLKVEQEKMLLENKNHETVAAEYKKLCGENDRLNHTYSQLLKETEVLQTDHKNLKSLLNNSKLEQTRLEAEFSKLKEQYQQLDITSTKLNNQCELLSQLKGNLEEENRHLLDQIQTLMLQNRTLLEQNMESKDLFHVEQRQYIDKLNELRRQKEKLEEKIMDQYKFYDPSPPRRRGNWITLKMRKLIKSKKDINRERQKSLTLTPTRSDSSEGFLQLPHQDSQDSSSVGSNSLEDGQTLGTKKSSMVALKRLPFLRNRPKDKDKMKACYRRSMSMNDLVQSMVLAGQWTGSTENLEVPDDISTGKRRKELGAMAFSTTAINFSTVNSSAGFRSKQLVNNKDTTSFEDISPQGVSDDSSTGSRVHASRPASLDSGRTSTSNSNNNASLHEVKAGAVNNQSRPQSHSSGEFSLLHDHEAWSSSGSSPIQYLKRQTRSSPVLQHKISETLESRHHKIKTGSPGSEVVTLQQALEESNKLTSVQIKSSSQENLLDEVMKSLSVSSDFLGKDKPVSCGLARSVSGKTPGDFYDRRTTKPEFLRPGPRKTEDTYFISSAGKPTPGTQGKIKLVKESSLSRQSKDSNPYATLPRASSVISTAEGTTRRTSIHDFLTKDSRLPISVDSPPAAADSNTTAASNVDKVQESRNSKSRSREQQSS

How the values were obtained:
[1] = target: GST-tagged Gαi3 (purified rat Gαi3) (rat) (UniProt P08753); assay: pull-down; purified GST-Gαi3 preloaded with GDP, immobilised on glutathione-Sepharose beads; lysates of transfected HEK293T cells; binding 4 h at 4 °C; immunoblot; only the target purified
[2] = target: FLAG-tagged Gαi3 (UniProt P08753); assay: co-IP; lysates of co-transfected HEK293T cells; capture antibody (anti-FLAG or anti-myc) 3 h at 4 °C, Protein A or Protein G beads; immunoblot
[3] = target: Gαi1(91)-RLuc2 (human) (UniProt P63096); assay: FRET or BRET; basal BRET between Gαi1(91)-RLuc2 and mVenus-Gβγ in HEK293T cells co-transfected with CXCR4 and GIV variants (with or without Dvl); coelenterazine-h 10 μM, room temperature, average over 3 min
[4] = target: GST-tagged Gαi3 (purified rat Gαi3) (rat) (UniProt P08753); assay: pull-down; purified GST-Gαi3 (no nucleotide loading told) immobilised on glutathione-Sepharose beads; lysates of HEK293T cells expressing myc-tagged WT or F1685A GIV or GIV-L; immunoblot with anti-myc; only the target purified
[5] = target: myc-tagged human GIV (wild type) (human) (UniProt Q3V6T2); assay: co-IP; lysates of co-transfected HEK293T cells; capture antibody (anti-FLAG or anti-myc) 3 h at 4 °C, Protein A or Protein G beads; immunoblot

myc-tagged human GIV (wild type) (from UniProt Q3V6T2-3 1-1870)
binding [1]: binds
binding [2]: binds
binding [3]: binds
binding [4]: binds

myc-tagged human GIV F1685A mutant (from UniProt Q3V6T2-3 1-1870)
binding [4]: no binding

B1: untagged Dvl1 (protein, UniProt O14640 1-695)
chain: MAETKIIYHMDEEETPYLVKLPVAPERVTLADFKNVLSNRPVHAYKFFFKSMDQDFGVVKEEIFDDNAKLPCFNGRVVSWLVLAEGAHSDAGSQGTDSHTDLPPPLERTGGIGDSRPPSFHPNVASSRDGMDNETGTESMVSHRRERARRRNREEAARTNGHPRGDRRRDVGLPPDSASTALSSELESSSFVDSDEDGSTSRLSSSTEQSTSSRLIRKHKRRRRKQRLRQADRASSFSSITDSTMSLNIVTVTLNMERHHFLGISIVGQSNDRGDGGIYIGSIMKGGAVAADGRIEPGDMLLQVNDVNFENMSNDDAVRVLREIVSQTGPISLTVAKCWDPTPRSYFTVPRADPVRPIDPAAWLSHTAALTGALPRYGTSPCSSAVTRTSSSSLTSSVPGAPQLEEAPLTVKSDMSAVVRVMQLPDSGLEIRDRMWLKITIANAVIGADVVDWLYTHVEGFKERREARKYASSLLKHGFLRHTVNKITFSEQCYYVFGDLCSNLATLNLNSGSSGTSDQDTLAPLPHPAAPWPLGQGYPYQYPGPPPCFPPAYQDPGFSYGSGSTGSQQSEGSKSSGSTRSSRRAPGREKERRAAGAGGSGSESDHTAPSGVGSSWRERPAGQLSRGSSPRSQASATAPGLPPPHPTTKAYTVVGGPPGGPPVRELAAVPPELTGSRQSFQKAMGNPCEFFVDIM
binding [5]: no binding
